{"source": "PubChem BioAssay AID588453", "about": "(National Center for Advancing Translational Sciences (NCATS), 2011)", "note": "Several values for one entry are separate records, joined by “and”; a condition that tells them apart may be missing. Identical values can stand only once. The campaign covered roughly 390,000 compounds. About 4,000 (1%) were called active. Inconclusive means that the source gave no clear call. Such entries were picked first, then a sample of the others. Calls follow the shape of the dose curve; as a rule, active = well fitted inhibition curve with a large enough effect; inconclusive = small, poorly fitted or top-dose-only effect; inactive = no such curve, though single readings can be large or run the other way. Where the call is inconclusive, the potency comes from a doubtful curve fit. % is scaled to controls: 0 for no effect and ±100 for the full control effect; potency is read from the fitted curve at half-maximal effect; tags tell the direction and shape of the fitted curve."}
{"molecular_target": "Thioredoxin reductase 1, cytoplasmic (Rattus norvegicus) (UniProt O89049)", "sequence (O89049 whole entry, looked up)": "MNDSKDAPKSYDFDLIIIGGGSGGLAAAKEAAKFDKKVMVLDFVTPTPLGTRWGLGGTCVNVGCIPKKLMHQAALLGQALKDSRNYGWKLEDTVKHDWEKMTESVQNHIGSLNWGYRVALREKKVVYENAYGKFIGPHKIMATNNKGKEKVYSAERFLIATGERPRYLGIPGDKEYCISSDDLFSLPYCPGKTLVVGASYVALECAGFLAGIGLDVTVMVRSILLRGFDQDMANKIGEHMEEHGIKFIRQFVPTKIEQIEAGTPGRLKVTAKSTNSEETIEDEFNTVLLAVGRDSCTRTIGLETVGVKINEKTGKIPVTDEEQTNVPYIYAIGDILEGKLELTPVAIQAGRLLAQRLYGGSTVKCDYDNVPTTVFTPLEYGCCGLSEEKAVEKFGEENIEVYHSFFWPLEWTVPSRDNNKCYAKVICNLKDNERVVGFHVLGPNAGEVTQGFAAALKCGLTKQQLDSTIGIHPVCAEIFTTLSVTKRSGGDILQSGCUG", "assay": "qHTS Assay for Inhibitors of Mammalian Selenoprotein Thioredoxin Reductase 1 (TrxR1): qHTS; also: nearly all actives have a fitted effect of over 65% in size", "details": "recombinant rTrxR1, NADPH fluorescence consumption, selenite substrate; series mostly up to 114 µM", "in_short": "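Rat TrxR1 (90 nM in the dispensed reagent) was pre-reduced with 400 uM NADPH for 5 min at room temperature, then incubated with compound for 15 min. After 400 uM selenite was added, NADPH fluorescence (Ex 340/Em 450 nm) was followed for 8 min.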"}
{"smiles": "Cc1cc(-c2ccco2)n(-c2ccccc2)n1", "Potency": "inconclusive: 10 µM [inhibitor, full curve]"}
{"smiles": "COC(=O)Cc1ccc(NC(=S)NCCSc2ccc(Cl)cc2)cc1", "Potency": "inconclusive: 79.4 µM [inhibitor, single point]"}
{"smiles": "Cc1cccnc1NC(=O)C1CCN(S(=O)(=O)c2ccc3c(c2)CCC(=O)N3)CC1", "Potency": "inactive"}
{"smiles": "CC(C)N1CCC(N2CCN(Cc3ccc(-c4ccc(Cl)cc4)o3)CC2CCO)CC1", "note": "(stereo not drawn)", "Potency": "inconclusive: 70.8 µM [inhibitor, partial curve, poor fit]"}
{"smiles": "O=C1CCCN1CCCNc1ncccc1[N+](=O)[O-]", "Potency": "inconclusive: 25.1 µM [inhibitor, single point]"}
{"smiles": "c1ccc(CCc2nn3c(Cc4ccccc4)nnc3s2)cc1", "Potency": "inconclusive: 35.5 µM [inhibitor, partial curve, poor fit]"}
{"smiles": "COC(=O)NCC(c1cccnc1)N1CCN(c2ccc(F)cc2)CC1", "note": "(stereo not drawn)", "activity change, negative = inhibition": "inactive: 19.9% [at 11.4 µM]"}
{"smiles": "Cc1cc(NC(=O)COC(=O)C(Nc2ccc(C(F)(F)F)cc2Cl)C(C)C)no1", "note": "(stereo not drawn)", "Potency": "inactive"}
{"smiles": "CN1CCC(N(C)CC(O)c2ccccc2)CC1", "note": "(stereo not drawn)", "Potency": "inactive"}
{"smiles": "COc1ccccc1CNC(=O)CCS(=O)(=O)c1ccc2c(c1)CCN2C(C)=O", "Potency": "inactive"}
{"smiles": "O=c1cc(O)cc(/C=C/c2ccc(O)c(O)c2)o1", "Potency": "inconclusive: 6.7 µM [inhibitor, partial curve] and inconclusive: 15.8 µM [inhibitor, partial curve]"}
{"smiles": "CCOC(=O)C1=CN(Cc2ccco2)S(=O)(=O)NC1c1ccc(F)c(Cl)c1", "note": "(stereo not drawn)", "Potency": "inconclusive: 56.2 µM [inhibitor, partial curve, poor fit]"}
{"smiles": "O=c1cc(/N=C/c2coc3cc(Br)ccc3c2=O)[nH]c(=S)[nH]1", "Potency": "inconclusive: 20 µM [inhibitor, full curve]"}
{"smiles": "O=C(CN(Cc1cccs1)C(=O)CNS(=O)(=O)c1ccccc1)NCc1ccco1", "Potency": "inconclusive: 70.8 µM [inhibitor, single point]"}
{"smiles": "O=C1CC(N2CCCCC2)C(=O)N1c1ccccc1", "note": "(stereo not drawn)", "Potency": "inconclusive: 31.6 µM [inhibitor, single point]"}
{"smiles": "Cc1cc(C)cc(-n2c(SCC(=O)N3CCOCC3)nc3c([nH]c4ccccc43)c2=O)c1", "Potency": "inactive"}
{"smiles": "CCOc1ccc(C2C(C(=O)c3ccc(C)o3)=C(O)C(=O)N2c2nc(C)c(C(=O)OC)s2)cc1", "note": "(stereo not drawn)", "Potency": "inconclusive: 50.1 µM [inhibitor, partial curve]"}
{"smiles": "CCCCN(C)CCNC(=O)c1cc2cc3ccc(OC)cc3nc2o1", "Potency": "active: 44.7 µM"}
{"smiles": "CCNC(=S)N/N=C(\\C)c1cc2ccccc2o1", "Potency": "inconclusive: 12.6 µM [inhibitor, partial curve, poor fit]"}
{"smiles": "Cc1ccc(C)c2[nH]c(=O)c(CCNC(=O)c3cc4ccccc4o3)cc12", "Potency": "inactive"}
{"smiles": "CCOc1ccc(NC(=O)c2ccc(F)cc2F)cc1", "Potency": "inconclusive: 79.4 µM [inhibitor, partial curve, poor fit]"}
{"smiles": "CCN(C(=O)c1sc2nc3n(c(=O)c2c1C)CCCCC3)c1ccc(OC)cc1", "Potency": "active: 70.8 µM"}
{"smiles": "CCOc1cc(/C=N/NC(=O)C(=O)NC)cc(Br)c1O", "Potency": "inconclusive: 79.4 µM [inhibitor, partial curve, poor fit]"}
{"smiles": "C=CCn1c(=S)[nH]c2scc(-c3cccs3)c2c1=O", "Potency": "inconclusive: 17.8 µM [inhibitor, partial curve]"}
{"smiles": "Nc1c(Br)cc(/C=C2\\C=Cc3ccccc32)cc1Br", "Potency": "inactive"}
{"smiles": "CC(C)C[C@@H](CO)N1CCN(Cc2ccc([N+](=O)[O-])cc2)CCC1=O", "Potency": "inconclusive: 89.1 µM [inhibitor, single point]"}
{"smiles": "Cc1cc2cc(C=C(C#N)C#N)c(Cl)nc2cc1C", "Potency": "inconclusive: 7.94 µM [inhibitor, full curve, poor fit]"}
{"smiles": "Cc1ccc(-c2cc(C(=O)Nc3ccccc3C(N)=O)c3ccccc3n2)o1", "Potency": "inconclusive: 22.4 µM [inhibitor, single point]"}
{"smiles": "O=S(=O)(c1ccccc1)c1ccc(C(F)(F)F)cn1", "Potency": "inconclusive: 44.7 µM [inhibitor, partial curve]"}
{"smiles": "COc1ccc([N+](=O)[O-])cc1NC(=S)NC(NC(=O)Cc1ccc(OC)c(OC)c1)C(Cl)(Cl)Cl", "note": "(stereo not drawn)", "Potency": "inactive"}
{"smiles": "COc1ccc(C2C(C(=O)/C=C/c3ccco3)=C(O)C(=O)N2CCN2CCOCC2)cc1OC", "note": "(stereo not drawn)", "Potency": "inconclusive: 35.5 µM [inhibitor, full curve, poor fit]"}
{"smiles": "COc1ccc2c(c1OC)C(=O)OC2Nc1nc(-c2ccc(-c3ccccc3)cc2)cs1", "note": "(stereo not drawn)", "Potency": "inconclusive: 79.4 µM [inhibitor, single point]"}
{"smiles": "COc1ccc(C(=O)NC(=S)Nc2ccc([N+](=O)[O-])cc2C)cc1OC", "Potency": "inconclusive: 2.24 µM [inhibitor, full curve]"}
{"smiles": "Cc1cc([N+](=O)[O-])nn1CC(=O)N/N=C/c1ccccc1F", "Potency": "inactive"}
{"smiles": "CC(=O)C(C(C)=O)c1c(Cl)c(O)c(O)c2c(C(=O)c3ccccc3)coc12", "Potency": "inconclusive: 8.91 µM [inhibitor, partial curve, poor fit]"}
{"smiles": "COc1cc(Cl)c(C)cc1NC(=O)CSc1ncc(S(=O)(=O)c2ccc(C(C)(C)C)cc2)c(=O)[nH]1", "Potency": "inactive"}
{"smiles": "COc1ccc(C2Nc3cccc4cccc(c34)N2)cc1", "Potency": "inconclusive: 79.4 µM [inhibitor, single point]"}
{"smiles": "COC(=O)c1sc2ccccc2c1NC(=O)c1ccc(S(=O)(=O)N2CC(C)CC(C)C2)cc1", "note": "(stereo not drawn)", "Potency": "inconclusive: 89.1 µM [inhibitor, single point]"}
{"smiles": "O=C(CCNc1cccc(C(F)(F)F)c1)c1ccco1", "Potency": "inconclusive: 17.8 µM [inhibitor, single point]"}
{"smiles": "CCOc1ccc(C2C3=C(CCCC3=O)N(CC(=O)O)C3=C2C(=O)CCC3)cc1", "Potency": "inconclusive: 22.4 µM [inhibitor, partial curve, poor fit]"}
{"smiles": "COc1ccc(NC(=O)c2cccc(N3C(=O)C4C5C=CC(C5)C4C3=O)c2)c(OC)c1", "note": "(stereo not drawn)", "Potency": "inactive"}
{"smiles": "CCN(CC)c1ccc(/C=N/NC(=O)Cc2ccc(OC)c(OC)c2)cc1", "Potency": "inconclusive: 79.4 µM [inhibitor, partial curve]"}
{"smiles": "COC(=O)CSC1=C(C#N)C(c2ccc(Cl)cc2)C(C(=O)OC)C(=O)N1", "note": "(stereo not drawn)", "Potency": "inactive"}
{"smiles": "Cc1ccc(-c2noc(CN3C(C)CCCC3C)n2)cc1", "note": "(stereo not drawn)", "Potency": "inconclusive: 56.2 µM [inhibitor, partial curve, poor fit]"}
{"smiles": "CC1=CN2C(=N)/C(=C/c3ccc([N+](=O)[O-])o3)C(=O)N=C2S1", "Potency": "active: 2.51 µM"}
{"smiles": "Cc1cc2ccccn2c1C(=O)c1ccc([N+](=O)[O-])cc1[N+](=O)[O-]", "Potency": "active: 3.16 µM"}
{"smiles": "Oc1c(C=NCc2ccncc2)sc2ccccc12", "Potency": "inactive"}
{"smiles": "CC(NC(=O)Nc1cc(Cl)ccc1Cl)c1c(-n2cccc2)sc2c1CCCC2", "note": "(stereo not drawn)", "Potency": "inactive"}
{"smiles": "Cc1ccc(-n2c(Cc3cccn3C)nnc2SCC(=O)NCc2ccco2)cc1", "Potency": "inconclusive: 22.4 µM [inhibitor, full curve]"}
{"smiles": "CC(C)n1c(=S)[nH]c2scc(-c3cccs3)c2c1=O", "Potency": "inconclusive: 11.2 µM [inhibitor, partial curve]"}
{"smiles": "CCN(CC)c1ccc(/C=C/c2ccncc2)cc1", "Potency": "inconclusive: 79.4 µM [inhibitor, single point]"}
{"smiles": "COc1cccc(N2CCN(C(=O)c3cc(C)oc3C)CC2)c1", "Potency": "inconclusive: 89.1 µM [inhibitor, single point]"}
{"smiles": "Oc1ccc(Cl)cc1C1C=C(c2ccc3c(c2)OCO3)NC(c2ccc(C(F)(F)F)cc2)N1", "note": "(stereo not drawn)", "Potency": "inconclusive: 70.8 µM [inhibitor, single point]"}
{"smiles": "COc1cc2ccc(=O)oc2cc1OCC(O)C(C)(C)O", "note": "(stereo not drawn)", "Potency": "inconclusive: 39.8 µM [inhibitor, single point]"}
{"smiles": "Cc1ccc(CN(C)C(=O)c2ccccc2NC(=O)c2ccccc2)o1", "Potency": "active: 28.2 µM"}
{"smiles": "CN(C)c1ccc(N/C=C/C(=O)c2ccccc2)cc1", "Potency": "inactive"}
{"smiles": "COc1ccc(C(=O)n2nc(-c3ccco3)nc2NCc2cccs2)cc1", "Potency": "active: 22.4 µM"}
{"smiles": "CC(=O)c1cccc(-c2ccc3c(=O)[nH]c(Nc4ccccc4)cc3c2)c1", "Potency": "inconclusive: 79.4 µM [inhibitor, single point]"}
{"smiles": "CCC(c1nnnn1C(C)(C)CC)N(CCCN1CCOCC1)Cc1cc2cccc(C)c2[nH]c1=O", "note": "(stereo not drawn)", "Potency": "active: 35.5 µM"}
{"smiles": "Cc1[nH][nH]c(=O)c1C(c1ccc(Cl)cc1)c1c(C)[nH][nH]c1=O", "Potency": "inconclusive: 50.1 µM [inhibitor, partial curve, poor fit]"}
{"smiles": "Cc1ccc(C(=O)C[n+]2cc(Br)cc(Br)c2)cc1", "Potency": "inconclusive: 79.4 µM [inhibitor, partial curve, poor fit]"}
{"smiles": "Cc1cc(C)c(S(=O)(=O)/N=C2/C=C(Sc3ncn[nH]3)C(=O)c3ccccc32)cc1C", "Potency": "inconclusive: 44.7 µM [inhibitor, partial curve, poor fit]"}
{"smiles": "O=C(CSC1=NNC(c2ccccn2)S1)Nc1ccccc1", "note": "(stereo not drawn)", "Potency": "inconclusive: 2.51 µM [inhibitor, full curve]"}
{"smiles": "Cc1ccc(CN2CCNC(=O)C2CC(=O)N(C)C2CCCCC2)cc1", "note": "(stereo not drawn)", "Potency": "inconclusive: 79.4 µM [inhibitor, partial curve]"}
{"smiles": "Cc1ccc(NCCC(=O)c2cccs2)cc1C", "Potency": "active: 4.47 µM"}
{"smiles": "O=c1cc(CO)oc(C(Nc2ccccn2)c2ccccc2F)c1O", "note": "(stereo not drawn)", "Potency": "inconclusive: 70.8 µM [inhibitor, partial curve]"}
{"smiles": "Cc1ccc(OC(C)C(=O)OCC(=O)Nc2sccc2C(N)=O)cc1", "note": "(stereo not drawn)", "Potency": "inconclusive: 50.1 µM [inhibitor, single point]"}
{"smiles": "CC(OC(=O)c1ccncc1)C(=O)Nc1cccc([N+](=O)[O-])c1", "note": "(stereo not drawn)", "Potency": "inactive"}
